In PubChem BioAssay AID504832 (National Center for Advancing Translational Sciences (NCATS), 2011):
Out of some 310,000 compounds screened, about 18,000 (5.8%) were called active. Inconclusive results, whose numbers are uncertain, are shown with a selection of clear calls. Calls come from the whole dose curve; as a rule, active = well fitted inhibition curve with a large enough effect; inconclusive = small, poorly fitted or top-dose-only effect, or another doubt; inactive = no such curve, though single readings can be large or run the other way. No potency is given beside an inconclusive call; the fits are too rough.

Assay: Primary qHTS for delayed death inhibitors of the malarial parasite plastid, 48 hour incubation
Conditions: P. falciparum luciferase growth in erythrocytes; series mostly up to 28.7 µM; activity change, negative = inhibition: at the top concentration
How it was run: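 Read-out is firefly luciferase luminescence from an integrated reporter in P. falciparum, so falling signal marks reduced parasite growth. Infected erythrocytes were at 2% hematocrit and 0.1% parasitemia (final) in Albumax-supplemented RPMI 1640.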
% is set by controls: 0 for no effect and ±100 for the full control effect; potency is the fitted concentration of half-maximal effect; tags give direction and shape of the fitted curve.

| SMILES | activity change, negative = inhibition | Potency |
| --- | --- | --- |
| CC1(C)CN=C(N(C(=O)Nc2ccccc2)c2ccccc2F)S1 | inactive: -28.6% |  |
| CCn1c(-c2ccccc2)ccc(C#N)c1=O | inactive: 2.38% |  |
| CC1CCN(S(=O)(=O)c2ccc3c(c2)N(CC(=O)NCCCN(Cc2ccccc2)C(C)C)C(=O)CO3)CC1 |  | inconclusive [inhibitor, single point] |
| CSc1ccccc1OCc1cc(C(=O)NCCc2nc(C)cc(C)n2)no1 |  | inconclusive [inhibitor, single point] |
| Cc1ccnc(NC(=O)C(C)N2C(=O)c3ccccc3S2(=O)=O)c1 (stereo unspecified) |  | inconclusive [inhibitor, single point] |
| Cc1[nH]c2ccccc2c1C1=CCNCC1 |  | active: 3.29 µM |
| O=C(NNS(=O)(=O)c1ccc(F)c(Cl)c1)c1cccc(S(=O)(=O)N2CCOCC2)c1 | inactive: 19.8% |  |
| CC(=O)OCC(=O)[C@@]1(O)[C@H](C)C[C@@H]2[C@H]3CCC4=CC(=O)C=C[C@]4(C)[C@]3(F)[C@@H](O)C[C@@]21C | inactive: -3.06% [at 12.8 µM] |  |
| Cc1c(C#N)c(NC(=O)c2cccc(Cl)c2)n(Cc2ccccc2)c1C |  | active: 11.7 µM |
| CCCSc1nc(C)cc(C)c1S(=O)(=O)c1ccccc1C |  | inconclusive [inhibitor, single point] |
| Oc1ccc(/C=N/N(Cc2ccccc2)c2ccccc2)c(O)c1O |  | inconclusive [inhibitor, partial curve, poor fit] |
| CC(C)(C)c1ccc(OCc2ccc(C(=O)N3CCOCC3)o2)cc1 |  | inconclusive [inhibitor, single point] |
| CCO[C@H]1OC(C(=O)N2CCOCC2)=C[C@@H](c2ccc(Br)cc2)[C@@H]1CCCO |  | inconclusive [inhibitor, single point] |
| O=C(CN1C2CCCC1CC(NC(=O)c1ccccc1)C2)Nc1nccs1 (stereo unspecified) |  | inconclusive [inhibitor, single point] |
| CC1=NN(C(N)=S)C(=O)C1N=Nc1ccccc1C (stereo unspecified) |  | inconclusive [inhibitor, single point] |
| Cc1ccc(-n2cc(CN(C)Cc3ncc[nH]3)c(-c3cccc(C)c3)n2)cc1 |  | active: 2.62 µM |
| COc1ccc(OC)c(C(=O)NC2CC(C)(C)Cc3c2cnn3-c2ccccc2)c1 (stereo unspecified) |  | inconclusive [inhibitor, partial curve] |
| CCCc1cc(-c2n[nH]c(=S)n2CC(C)C)cs1 | inactive: 10.5% |  |
| COc1cccc(C(=O)N(Cc2cc3cc(C)ccc3[nH]c2=O)CC2CCCO2)c1 (stereo unspecified) |  | active: 9.28 µM |
| Cc1csc(NC(=O)CSc2nnc(-c3ccco3)n2C)n1 |  | inconclusive [inhibitor, single point] |
| CCOc1ccc(NC(=O)C2=NN(c3ccccc3)C(=O)CC2)cc1S(=O)(=O)N1CCCCC1 |  | active: 11.7 µM |
| COc1ccc(NC(=O)CCOc2ccc(C)cc2)cc1S(=O)(=O)N1CCOCC1 | inactive: -21.6% |  |
| CN1CCN(c2nc3ccccn3c(=O)c2C=C(C#N)C#N)CC1 | inactive: -10.1% |  |

| SMILES | activity change, negative = inhibition | Potency |
| --- | --- | --- |
| CCOc1ccc2nc(N3CCC(C(=O)N4CCN(C(=O)c5ccco5)CC4)CC3)sc2c1 |  | active: 13.1 µM |
| CC(C)(C)c1ccc(Oc2ccc(NC(=O)c3ccco3)cn2)cc1 |  | active: 2.08 µM |
| COc1ccccc1NS(=O)(=O)c1ccc2oc(SCc3ccc(F)cc3)nc2c1 | inactive: -20.5% |  |
| COc1ccc(C(CNC(=O)Nc2ccccc2)N2CCN(C)CC2)cc1 (stereo unspecified) | inactive: 6.59% |  |
| CC(=O)c1c(N2CCN(c3cccc(Cl)c3)CC2)nc(=S)n(-c2ccccc2)c1C |  | inconclusive [inhibitor, partial curve, poor fit] |
| CCC1=Nc2cc(C(=O)N3CCCCC3)ccc2Sc2ccc(C)cc21 |  | inconclusive [inhibitor, single point] |
| Cc1ccc2cc(CCNC(=O)c3ccc(S(=O)(=O)N4CCOCC4)cc3)c(=O)[nH]c2c1C |  | inconclusive [inhibitor, single point] |
| CCOC(=O)C1CCN(C(=O)COC(=O)CNC(=O)c2ccc(OC)cc2)CC1 |  | inconclusive [inhibitor, full curve, poor fit] |
| C=CCn1c(P(=O)(O)c2ccccc2)nc2ccccc21 | inactive: 99.4% |  |
| CC/C(O)=C1\C(=O)CC(c2ccccc2)CC1=NC(C)C (stereo unspecified) |  | inconclusive [inhibitor, partial curve, poor fit] |
| Cc1cccc(N2CCN(CC(=O)Nc3ccc(S(=O)(=O)N4CCOCC4)cc3)CC2)c1C |  | inconclusive [inhibitor, partial curve] |
| COc1ccc2nc(C)cc(Sc3nc4ccccc4s3)c2c1 |  | inconclusive [inhibitor, single point] |
| CCOC(=O)c1ccc(NC(=O)c2cc(OC)c(OC)c(OC)c2Br)cc1 |  | inconclusive [inhibitor, partial curve, poor fit] |
| CC1CC(c2ccccc2)NS(=O)(=O)O1 (stereo unspecified) | inactive: 40.2% |  |
| COC(=O)CNC(c1ccccc1)c1cc(Br)ccc1N (stereo unspecified) | inactive: 8.06% |  |
| O=C(CCl)NCc1c(Cl)cccc1-n1cccc1 |  | active: 10.4 µM |
| Cc1cccc(C(=O)N[C@H](C(=O)Nc2nc3ccccc3[nH]2)C(C)C)c1 |  | inconclusive [inhibitor, single point] |
| CCCc1nc(SCC(=O)Nc2cc(C)on2)c2ccccc2n1 | inactive: -23% |  |
| Cc1sc(NC(=O)Cn2nc(C(F)(F)F)cc2C)c(C(=O)OC(C)C)c1C |  | inconclusive [inhibitor, single point] |
| COc1ccc(-c2nn(C)c(=O)c3ccccc23)cc1NC(=O)COc1ccc(C)cc1 |  | inconclusive [inhibitor, single point] |
| COc1ccccc1N1CCN(C(=O)c2ccccc2SCC(=O)N2CCCC2)CC1 |  | inconclusive [inhibitor, single point] |
| CC(C)CN(C(=O)COC(=O)Cc1ccc(Cl)cc1)c1c(N)n(Cc2ccccc2)c(=O)[nH]c1=O |  | inconclusive [inhibitor, single point] |
| Cc1cc(C)cc(NC(=O)c2ccc(NC3=NC4CS(=O)(=O)CC4S3)cc2)c1 (stereo unspecified) | inactive: -1.95% |  |
